About 2,200 (0.71%) of roughly 310,000 compounds showed an effect of 50% or more. Effects have a minus sign here. Some of the results follow.

In the assay the target is human ether-à-go-go-related gene (hERG) potassium channel (human, UniProt Q12809). Kind of assay: primary screen, population patch clamp on CHO cells stably expressing hERG.
human ether-à-go-go-related gene (hERG) potassium channel, sequence (Q12809 whole entry, looked up): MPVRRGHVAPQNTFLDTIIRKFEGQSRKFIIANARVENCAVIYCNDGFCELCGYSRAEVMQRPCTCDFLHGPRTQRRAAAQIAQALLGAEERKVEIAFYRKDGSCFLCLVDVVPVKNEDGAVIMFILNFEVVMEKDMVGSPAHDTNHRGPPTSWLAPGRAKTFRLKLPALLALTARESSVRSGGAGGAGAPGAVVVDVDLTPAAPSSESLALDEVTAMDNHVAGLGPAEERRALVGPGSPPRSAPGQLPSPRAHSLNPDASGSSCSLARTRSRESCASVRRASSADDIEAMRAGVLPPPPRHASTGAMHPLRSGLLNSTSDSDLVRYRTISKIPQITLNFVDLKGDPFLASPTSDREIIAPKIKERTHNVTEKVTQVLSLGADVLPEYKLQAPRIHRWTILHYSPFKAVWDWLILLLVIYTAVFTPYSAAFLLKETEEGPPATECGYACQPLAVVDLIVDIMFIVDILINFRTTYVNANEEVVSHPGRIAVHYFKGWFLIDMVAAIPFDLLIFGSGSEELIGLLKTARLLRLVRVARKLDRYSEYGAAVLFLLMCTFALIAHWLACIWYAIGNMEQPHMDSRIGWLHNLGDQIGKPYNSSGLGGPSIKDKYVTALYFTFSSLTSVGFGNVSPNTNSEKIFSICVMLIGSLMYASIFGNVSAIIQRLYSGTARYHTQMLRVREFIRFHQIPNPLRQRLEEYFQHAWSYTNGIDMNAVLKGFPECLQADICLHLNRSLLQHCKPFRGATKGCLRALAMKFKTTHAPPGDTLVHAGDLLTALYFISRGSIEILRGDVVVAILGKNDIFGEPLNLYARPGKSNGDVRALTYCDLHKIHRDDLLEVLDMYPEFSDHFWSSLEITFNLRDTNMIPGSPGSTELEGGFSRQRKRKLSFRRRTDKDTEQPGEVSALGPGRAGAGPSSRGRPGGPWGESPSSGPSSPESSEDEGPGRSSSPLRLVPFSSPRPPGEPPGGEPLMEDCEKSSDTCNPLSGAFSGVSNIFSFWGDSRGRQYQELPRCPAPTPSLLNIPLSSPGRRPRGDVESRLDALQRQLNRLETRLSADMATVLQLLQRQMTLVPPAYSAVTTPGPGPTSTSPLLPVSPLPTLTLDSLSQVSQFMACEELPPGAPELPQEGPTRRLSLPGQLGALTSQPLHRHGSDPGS
As for `COC(=O)c1ccc(NC(=S)N2CCCC2)cc1`, the “hERG current change (%, negative = inhibition) at 1uM” value came out at 3.26%. As for `COc1ccnc(Oc2cccc(C(F)(F)F)c2)c1C(=O)N/C=N/OCc1ccccc1F`, the figure is 18%; as for `CCN(CC)CC.CN1C(=O)/C(=C2/C=Cc3ccccc3N2CCCS(=O)(=O)O)SC1=S`, -2.02%.

Take `Cc1ccc(-c2noc(CCCC(=O)NC3CCCC3)n2)cc1`: the “hERG current change (%, negative = inhibition) at 1uM” value came out at 13.3%. As for `CC(C)(C)c1cc(C(=O)NNC(=O)c2ccc(Cl)cc2)no1`, the figure is 10.2%; as for `COc1cccc2cc(C(=O)c3ccc([N+](=O)[O-])cc3)oc12`, 4.82%. The figure for `CCCCOC(=O)Nc1nnc(COc2ccccc2)s1` is -1.57%; for `Cc1ccc(-c2csc3ncnc(-n4nnc5ccccc54)c23)cc1` it is 3.11%. The figure for `COc1ccc(-c2noc(N3CCC(C(=O)N4CCN(c5ccccn5)CC4)CC3)n2)cc1` is -1.78%.

For the compound `C=CC[C@@H]1C=C(C)C[C@H](C)C[C@H](OC)[C@H]2O[C@@](O)(C(=O)C(=O)N3CCCC[C@H]3C(=O)O[C@H](/C(C)=C/[C@@H]3CC[C@@H](O)[C@H](OC)C3)[C@H](C)[C@@H](O)CC1=O)[C@H](C)C[C@@H]2OC`, the “hERG current change (%, negative = inhibition) at 1uM” value is 11.6%. The figure for `COc1ccc(CN2C(=O)c3cccc4cccc(c34)C2=O)cc1` is 5.18%; for `C=CCOc1ccccc1/C=c1\sc2nc(=O)c(C)nn2c1=O` it is -8.97%. In the case of `Cc1cccc(NC(=O)c2ccc(-n3ccnc3)nc2)c1`, the “hERG current change (%, negative = inhibition) at 1uM” value was found to be 4.79%. The figure for `Cc1ccccc1N(CC(=O)NCCSCc1ccco1)S(C)(=O)=O` is 10.4%.

Turning to `CCOC(=O)/C=C1\SCC(=O)N1Cc1ccc(Br)cc1`, the “hERG current change (%, negative = inhibition) at 1uM” value was 10.1%.

Consider `CC(C)CNC(=O)CCCSc1nc2ccccc2[nH]1`, for which the “hERG current change (%, negative = inhibition) at 1uM” value is given as -1.54%.

Turning to `CCc1c(C)sc2nc(SCC(=O)Nc3cc(C)on3)n(CCOC)c(=O)c12`, the “hERG current change (%, negative = inhibition) at 1uM” value was found to be 2.29%. The figure for `CCOc1ccc(S(=O)(=O)NCCC(=O)NCc2ccccn2)cc1` is 2.3%; for `COc1ccc(Cc2nnc(NC(=O)C(C)(C)C)s2)cc1` it is 9.59%. The figure for `CCn1c(CN2CCCCCC2=O)nnc1SCc1cnc(-c2ccccc2)s1` is 3.61%; for `c1ccc(-c2cn(-c3ccccc3)c3ncnc(NCCCN4CCOCC4)c23)cc1` it is -18.7%. With `COCCNC(=O)[C@@]1(C)C=C[C@@H](Cc2ccccc2)N1C(=O)c1ccccc1`, the “hERG current change (%, negative = inhibition) at 1uM” value was found to be 4.15%. For the compound `CCCn1c(SCC(=O)NC2CCCCC2)nnc1-c1cccnc1`, the “hERG current change (%, negative = inhibition) at 1uM” value worked out at 16.6%. As for `Cc1cc(OCCn2cncn2)ccc1[N+](=O)[O-]`, the figure is 10.2%; as for `O=C(C1CCOCC1)N1CCCC(N2CCN(c3cccc(C(F)(F)F)c3)CC2)C1` (stereo not drawn), 10.8%; as for `CCn1c(SCC(=O)Nc2c(C)n(C)n(-c3ccccc3)c2=O)nc2c1c(=O)n(C)c(=O)n2C`, 10.6%.

Take `O=C(Nc1ccc(Cl)cc1)C1CC=CCC1C(=O)OCC(F)(F)C(F)F` (stereo not drawn): the “hERG current change (%, negative = inhibition) at 1uM” value is -1.48%.

`COC(=O)c1cc(S(=O)(=O)N2CCN(c3ccc([N+](=O)[O-])cc3)CC2)c[nH]1`: the “hERG current change (%, negative = inhibition) at 1uM” value is -21.3%. In the case of `Cl.OCCNc1nc(-c2ccccc2)nc2ccccc12`, the “hERG current change (%, negative = inhibition) at 1uM” value came to 6.32%. As for `CSc1nc(-c2ccc(Cl)cc2)c(C#N)c(=O)[nH]1`, the figure is 4.43%; as for `Cc1c(NS(=O)(=O)c2cccc(C(=O)NCc3ccc(Cl)cc3)c2)c(=O)n(-c2ccccc2)n1C`, 12.5%. The figure for `N=c1occ(C(=O)c2cc(F)ccc2O)cc1C(=O)NC1CCCCC1` is 8.14%.

Turning to `COc1ccc(/C=N/NC(=O)c2csc(-n3nc(C)cc3C(F)(F)F)n2)cc1`, the “hERG current change (%, negative = inhibition) at 1uM” value came out at 1.29%.

Take `CN(CC(=O)Nc1cccc(F)c1)C(=O)CCSc1ccc(F)cc1`: the “hERG current change (%, negative = inhibition) at 1uM” value is recorded as 16.2%.

On to `CCN(CC)c1ccc(NC(=O)CN2CCN(CC(=O)Nc3ccc(F)cc3)CC2)cc1`, for which the “hERG current change (%, negative = inhibition) at 1uM” value is on record as -84.5%. The figure for `Cn1nc(C(=O)Nc2cccc(S(=O)(=O)N3CCOCC3)c2)c2ccccc2c1=O` is 9.49%; for `Cc1cccc(NC(=S)NCC(c2ccccc2)N(C)C)c1` (stereo not drawn) it is 14.2%. On to `COc1ccc(C)cc1NC(=O)CN1CCCN(S(=O)(=O)c2ccc(Br)cc2)CC1`, for which the “hERG current change (%, negative = inhibition) at 1uM” value amounted to 7.55%. With `COc1ccc(S(=O)(=O)NCCCCNS(=O)(=O)c2ccc(OC)cc2)cc1`, the “hERG current change (%, negative = inhibition) at 1uM” value is given as 16.2%. As for `N#Cc1ccsc1NC(=O)CN1CCN(S(=O)(=O)c2cc(Cl)ccc2Cl)CC1`, the figure is 14.2%; as for `CCCCn1c(N)c(N(CC(C)C)C(=O)C2CCN(S(=O)(=O)c3ccc(C)cc3C)CC2)c(=O)[nH]c1=O`, 2.62%; as for `OCC[C@H]1C[C@H](O)[C@@H](O)[C@@]2(CCCc3ccccc3O2)O1`, 9.58%.

These data come from article PMC4336329 (PLoS ONE, 2015).
